# Results: ChEMBL document CHEMBL4888484, “Replenishing the malaria drug discovery pipeline: Screening and hit evaluation of the MMV Hit Generation Library 1 (HGL1) against asexual blood stage Plasmodium falciparum ,using a nano luciferase reporter read-out” (2022)
# Where “and” joins values, the source holds several entries; their conditions need not be identical. Equal entries are not always repeated. In all, about 150,000 compounds went through this assay and about 540 (0.36%) showed an effect of 50% or more. This is one part of the list.
# System: Plasmodium falciparum
# Assay: Primary screen in NF54 nanoGlo assay, in single point, at 2uM, 72h; a lower Z score goes with more inhibition
# Format: functional, Erythrocyte
# Settings: timepoint 72 hour
Structure (SMILES),% Inhibition [%],Z score,% Inhibition (2 µM)
C[C@H]1CN(C(=O)c2coc3ccccc23)C(C)(C)CO1,-6,0.58,
c1cc(-c2noc(CN3CCC[C@H]3C3CCC3)n2)co1,-10,1.49,
CC(C)(CC(=O)N1CCCOCC1)c1ccccc1,-29,3.39,
O=C(Nc1ccc2c(c1)OCO2)C1CCN(C(=O)c2ccco2)CC1,8,-1.04,
COCc1ccc(C(=O)N(C)[C@H]2CCCC[C@H]2C(F)(F)F)cc1F,-9,1.08,
COc1ccccc1N1CCN(c2c(C(=O)N3CCCC3)cnc3ccc(F)cc23)CC1,-8,1.04,
O=C1NCCN1CCN1CCc2[nH]ncc2C1,-10,1.34,
O=C(O)[C@@H]1Cc2c([nH]c3ccccc23)CN1C(=O)c1cccn1C1CC1,-2,0.23,
CCOC(=O)c1ccc(NC(=O)N2CCc3nc(-c4ccccc4)nc(N4CC(C)OC(C)C4)c3C2)cc1 (configuration not stated),-16,2.05,
CCc1nnc(CN(C)C(=O)[C@H](C)c2n[nH]c(=O)c3ccccc23)o1,-7,1.07,
CC(=O)Nc1nc(C(=O)NCC(C)(C)N2CCN(C)CC2)cs1,5,-0.85,
CC(=O)N1CCCN(C(=O)CCc2ccco2)CC1,-6,0.6,
CN(C(=O)c1cccc(Nc2cnn(C)c2)c1)c1cccc(F)c1,-11,1.56,
Nc1c2c(nc3c1CCCC3)CCCC2 [OCTAAMINOACRIDINE],4,-0.58,
Cc1nc(CN2CCc3c(c(C(=O)N(C)Cc4cscn4)nn3Cc3ccccc3)C2)no1,-5,0.9,
CC(C)C1(C)NC(=O)N(CC2COc3ccccc3O2)C1=O (configuration not stated),-1,0.13,
Cc1nc(Cc2noc(-c3cc(C)c(C)c(S(N)(=O)=O)c3)n2)no1,17,-2.03,
O=C1N[C@H]2C[C@@H](C(=O)NC[C@H]3O[C@H](CCOc4ccccc41)CC[C@@H]3O)N(Cc1ncc[nH]1)C2,-1,0.18,
Cc1cccc(OCCN2C(=O)COc3ccccc32)c1,-5,0.68,
CC(C)CC(=O)Nc1ccc(N2CCN(C(=O)C3CCCC3)CC2)c(C(=O)N2CCCCC2)c1,-2,0.35,
CC(=O)N1CCC(NCc2nc3ccccc3n2C)C(C)C1 (configuration not stated),2,-0.29,

Structure (SMILES),% Inhibition [%],Z score,% Inhibition (2 µM)
C[C@H](NC(=O)c1csc(CN(Cc2ccc(F)cc2)Cc2ccccc2F)n1)c1ccccc1,-4,0.35,
CCc1nc(C2CC2)nc(N2CCN(S(C)(=O)=O)CC2)c1Cc1cc(C)ccc1C,7,-1.26,
C1=C(CCNC2=NCCCCC2)CCCC1,-1,0.14,
O=C(c1ccc(-n2ccc3ccccc32)s1)N1CCN(c2ccc(F)cc2)CC1,-11,1.42,
Cc1ccccc1CC(=O)N1CCC2(CC1)C[C@@H](O)CCO2,-12,1.73,
CCc1ccc(-c2nccn2-c2ccc3[nH]c(CO)nc3c2)nc1,-11,1.44,
Cc1cc(CN(C)Cc2cc(C)on2)no1,-7,1.11,
O=C1CN(C(=O)N[C@@H](Cc2ccccc2)C(=O)Nc2cccc(F)c2)c2ccccc2N1,,,8% and -4%
CCc1nc(C)c(CN2CCC([C@](C)(O)C(F)(F)F)CC2)o1,-5,0.97,
CN1C(=O)C(=O)N(CC(=O)NCCc2ccccc2)C1=O,5,-0.87,
COc1c(C)cnc(CN2CCC(N(C)CCc3cccnc3)CC2)c1C,-10,0.86,
Cc1cc(C)n2ncc(-c3noc(-c4cccc5cn[nH]c45)n3)c2n1,-8,0.85,
CN1CC(C)(O)C(=O)CC1/C=C/c1ccccc1 (configuration not stated),0,0.06,
CCc1ncc(CN(C)CCc2nc(-c3ccccc3)no2)s1,-4,0.34,
COc1ccc(NC(=O)Cn2c(C)cc(C)c(-c3nc(-c4ccc5c(c4)OCO5)no3)c2=O)c(OC)c1,-7,0.93,
Cc1c(Cl)cccc1-c1nc(-c2ncccn2)no1,-2,0.19,
CC(C)Cn1cncc1CNc1nc(N)nc2c1CCCC2,1,-0.17,
CN(C)c1nc(N(C)CCn2cccn2)ncc1F,-19,2.99,
Cc1ncc(C)c(NCc2cccnc2Oc2ccc(F)cc2F)n1,-3,0.32,
CCN1CCN(C(=O)CCC2CCN([C@@H](C)CCc3ccc(O)cc3)CC2)CC1,-16,2.22,
Cc1cc(O)cc(=O)n1CCCC(=O)Nc1ccc(N2CCOCC2)cc1,-3,0.42,

Structure (SMILES),% Inhibition [%],Z score,% Inhibition (2 µM)
O=C(Cc1ccc(Cl)cc1)Nc1ccc(C(=O)N2CCCCC2)cc1,-20,3.72,
Cc1nc2n(c(=O)c1C)CCN2CCN1CCOCC1,2,-0.41,
O=C(NCc1nc(C2CCOCC2)no1)c1ccno1,-14,1.83,
Cc1cc(C)n(CC(=O)NC2CCCCCCC2)n1,1,-0.09,
O=C(NCc1nc(C2CC2)no1)c1ccco1,-17,1.96,
CCc1cnc(N)nc1N1CCC(CCC(=O)NC2CC2)CC1,-7,0.75,
C[C@H]1Cc2cc(CNC(=O)Nc3ccnc(CN(C)C)c3)ccc2O1,-1,0.19,
Cc1cc(Br)ccc1NC(=O)C1CCN(c2cc(=O)n(C)c(=O)n2C)CC1,1,-0.14,
O=C(NCC1([C@H](O)c2ccccc2)CC1)Nc1ccc2cc[nH]c2c1,8,-0.98,
CC(C)[C@@H]1N(C(=O)c2c[nH]c(C3CC3)n2)CC12CCCC2,-2,0.25,
COc1nc(N[C@@H](C)c2ccccn2)nc(N2CCCCCC2)n1,-4,0.65,
Cn1cc(C(=O)NCC2(OCCO)CCCC2)nn1,-7,0.77,
CCOCC(=O)N1CCC(=C2CCC2)CC1,-12,1.79,
O=C(NCCc1ccc(=O)[nH]c1)c1ccc(O[C@H]2CC2(F)F)cc1,1,-0.15,
Cn1nc(N2CCC[C@H](C(=O)Nc3cc(C(F)(F)F)ccc3Cl)C2)ccc1=O,-11,2.11,
COCCOC1CN(C(=O)Nc2ccc(C)nc2C)C1,-9,0.87,
Cc1nc2c(C(=O)NC(Cc3ccccn3)[C@H]3C[C@@H](O)C3)cccc2[nH]1 (some centres not stated),-12,2.29,
Cc1nn(-c2ccc(C(F)(F)F)cc2)c(C)c1[C@@H]1C=C[C@@H](NC(=O)NC(C)C)C1,33,-3.76,
O=C(CN1C(=O)c2cc(Cl)c(Cl)cc2C1=O)NCCOc1ccccc1,-4,0.55,
O=C(Cn1cnc(-c2ccccc2)n1)Nc1cccc(-c2cn[nH]c2)c1,-5,0.67,
CCN1CCN(C2(C(=O)N(C)CC3CCOCC3)Cc3ccccc3C2)CC1,-19,1.66,

Structure (SMILES),% Inhibition [%],Z score,% Inhibition (2 µM)
COC(=O)c1cc(=O)c2ccccc2n1Cc1ccccc1F,6,-0.73,
CO[C@@H]1C[C@H](COc2cccnc2)N(S(=O)(=O)CC(C)C)C1,-4,0.48,
CCn1nc(C)c(Cn2cc(-c3ccc(F)c(Cl)c3)nn2)c1C,-17,2.38,
CC1(C)C(=O)c2ccccc2N1C(=O)CCS(C)(=O)=O,0,0.02,
COc1ccc(CN2CCNC(=O)[C@@H]2CC(=O)NCCc2cccnc2)c(F)c1,8,-0.87,
CCOC(=O)[C@H]1CCCN1S(=O)(=O)C1CC1,20,-2.54,
Cn1cc(-c2nn(C)cc2C(=O)Nc2ccc(F)c(C3CC3)c2)cn1,-1,0.11,
CS(=O)(=O)c1cccc(-c2nnc(NC(=O)c3ccc4c(c3)OCCO4)o2)c1,-16,2.83,
Cc1cc([C@]2(C)NC(=O)N(CC(=O)Nc3ccccc3Cl)C2=O)c(C)o1,-4,0.65,
CS(=O)(=O)c1cccc(-c2nnc(-c3ccc4c(c3)CCO4)o2)c1,-15,3.03,
O=C(N[C@H]1CC12CCN(C(=O)CC1CCCC1)CC2)c1ccccc1,-4,0.5,
CC(=O)N1CC2(CCN(CCCc3ccccc3)CC2)C[C@H]1C(=O)O,4,-0.84,
CCc1nc(CCn2cc(-c3ccc(-c4cc[nH]n4)o3)nn2)no1,-6,1.16,
CC(C)Cc1noc(Cn2cnc3cc(F)c(F)cc32)n1,-4,0.53,
CN(C)C[C@H](NS(=O)(=O)C1CC1)c1ccc(Cl)cc1,-7,0.74,
CCc1ccc(S(=O)(=O)N[C@H]2CS(=O)(=O)C[C@@H]2O)cc1,2,-0.27,
C#CC1(O)CCN(C(=O)Nc2ccc(N3CCCCC3)cc2)CC1,-7,0.92,
Cc1ccc(N(CC(=O)Nc2ccc(OCc3ccccc3)cc2)S(=O)(=O)c2ccccc2)cc1,1,-0.19,
Cc1cc(=O)n(CC(=O)Nc2cccc(Cl)c2)c(N2CCc3ccccc3C2)n1,-14,1.28,
O=C(NCC1CCOCC1)c1ccc2n[nH]c(=O)n2c1,32,-0.58,
COc1ccc(Cc2ncc3c(n2)CN(C(=O)[C@@H](C)Cn2cncn2)C3)cc1,-2,0.46,
